{"source": "the supplement of paper PMC3334620", "note": "The full ranking holds about 33,000 sequences; the median of “E-score (-0.5 to 0.5)” is about -0.054, and the highest 2% start at about 0.39. Some of the results follow.", "data": [{"target": "Ylr278c (UniProt Q05854)", "assay": "PBM E-score (8-mer binding enrichment) (E-score (-0.5 to 0.5)); higher = stronger / more preferred TF binding; most listed sequences are background and not binding sites", "details": "protein concentration: 200 nM; construct: GST-DNA-binding domain", "protocol": "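Universal 'all 10-mer' protein binding microarrays (Agilent AMADID 015681) probed with GST-tagged S. cerevisiae TFs (full-length or DBD) made by in vitro transcription/translation (PURExpress), about 100-200 nM. Bound TF was detected with fluorescent anti-GST. Each ungapped 8-mer (which stands for itself and its reverse complement) is scored by the PBM enrichment score (E-score), a modified Wilcoxon-Mann-Whitney statistic from -0.5 to +0.5, computed with the Universal PBM Analysis Suite. Scale: above 0.35 generally sequence-specific binding.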", "values": [{"sequence": "GTCATGTA", "PBM E-score": -0.224}, {"sequence": "ATGAGATA", "PBM E-score": -0.0679}, {"sequence": "CCCGTCTC", "PBM E-score": 0.126}, {"sequence": "TCCGAGGA", "PBM E-score": 0.401}, {"sequence": "CCGGTCCG", "PBM E-score": 0.45}, {"sequence": "GGACTTAC", "PBM E-score": 0.305}, {"sequence": "GAATGGCC", "PBM E-score": 0.283}, {"sequence": "CTCCGGTC", "PBM E-score": 0.455}, {"sequence": "CATCGAGC", "PBM E-score": 0.0386}, {"sequence": "CAGTCGTC", "PBM E-score": -0.0543}, {"sequence": "CCTCCTGA", "PBM E-score": -0.172}, {"sequence": "CATTCAAG", "PBM E-score": -0.154}, {"sequence": "CTACTTAA", "PBM E-score": -0.181}, {"sequence": "CCTCCGTA", "PBM E-score": 0.37}, {"sequence": "AGTCCTAG", "PBM E-score": -0.133}, {"sequence": "GAGTATGC", "PBM E-score": 0.1}, {"sequence": "GGCTCACA", "PBM E-score": -0.0723}, {"sequence": "GACACGTA", "PBM E-score": -0.186}, {"sequence": "CAGCGTAG", "PBM E-score": -0.0957}, {"sequence": "CATGTCGG", "PBM E-score": 0.23}, {"sequence": "AAGGACCG", "PBM E-score": 0.177}, {"sequence": "AGCGTCTC", "PBM E-score": 0.0181}, {"sequence": "ACCGTGAC", "PBM E-score": 0.0148}, {"sequence": "ACTTGACC", "PBM E-score": -0.163}, {"sequence": "CGTGGTAC", "PBM E-score": -0.178}, {"sequence": "AAAAATGG", "PBM E-score": 0.0789}, {"sequence": "TCCATACA", "PBM E-score": -0.0994}, {"sequence": "TATTTCCA", "PBM E-score": 0.0948}, {"sequence": "CGGAGCCC", "PBM E-score": 0.37}, {"sequence": "AGAAGACA", "PBM E-score": -0.214}, {"sequence": "AGGAGAGC", "PBM E-score": -0.275}, {"sequence": "CTATAGCA", "PBM E-score": -0.158}, {"sequence": "AAGCGTTG", "PBM E-score": -0.256}, {"sequence": "ATACAGTA", "PBM E-score": -0.11}, {"sequence": "CCGGGCAG", "PBM E-score": 0.254}, {"sequence": "CAGCCGCG", "PBM E-score": 0.118}, {"sequence": "GACCAGAA", "PBM E-score": -0.17}, {"sequence": "GCGAGGCC", "PBM E-score": -0.0939}, {"sequence": "ACCAACCG", "PBM E-score": 0.0753}, {"sequence": "GCCGGGCC", "PBM E-score": 0.28}, {"sequence": "ACGAATAA", "PBM E-score": 0.0238}, {"sequence": "GGGCCTTA", "PBM E-score": -0.145}, {"sequence": "AGGTCTCG", "PBM E-score": -0.0595}, {"sequence": "GTTTCGAA", "PBM E-score": -0.0713}, {"sequence": "AGCCCCCA", "PBM E-score": -0.327}, {"sequence": "TCCTTGCA", "PBM E-score": -0.0166}, {"sequence": "GTACGAAC", "PBM E-score": 0.109}, {"sequence": "GCAGAACA", "PBM E-score": 0.0396}, {"sequence": "AGATATCC", "PBM E-score": 0.123}, {"sequence": "AAATGATT", "PBM E-score": 0.177}, {"sequence": "ATGTCAGA", "PBM E-score": -0.161}, {"sequence": "CTACTGGA", "PBM E-score": -0.133}, {"sequence": "TCCGTGAA", "PBM E-score": 0.292}, {"sequence": "ACGATCGC", "PBM E-score": 0.065}, {"sequence": "AGCGAACA", "PBM E-score": 0.0531}, {"sequence": "AGGGACAA", "PBM E-score": 0.0139}, {"sequence": "GTAAAGGA", "PBM E-score": -0.0781}, {"sequence": "CACTTGAG", "PBM E-score": -0.156}, {"sequence": "ACCCCCTA", "PBM E-score": -0.413}, {"sequence": "TAAGAGCA", "PBM E-score": -0.216}, {"sequence": "GCGAATCA", "PBM E-score": 0.0285}, {"sequence": "GCTTAGAC", "PBM E-score": -0.237}, {"sequence": "CCAAGGCC", "PBM E-score": -0.0974}, {"sequence": "ATGAGTGG", "PBM E-score": -0.147}, {"sequence": "CAATAAAG", "PBM E-score": -0.118}, {"sequence": "ACGCGCAT", "PBM E-score": -0.0626}, {"sequence": "CCCCTGGA", "PBM E-score": -0.132}, {"sequence": "CACGAACA", "PBM E-score": -0.09}, {"sequence": "ATGTTTGA", "PBM E-score": -0.177}, {"sequence": "TCCTGGCA", "PBM E-score": -0.153}, {"sequence": "CGCCGGGA", "PBM E-score": 0.412}, {"sequence": "GCGCTCCC", "PBM E-score": -0.0394}, {"sequence": "CATGTATA", "PBM E-score": -0.306}, {"sequence": "ATAACGTA", "PBM E-score": 0.0163}, {"sequence": "ATGCTGTG", "PBM E-score": -0.133}, {"sequence": "AGTGTTTC", "PBM E-score": -0.104}, {"sequence": "TGCTCACA", "PBM E-score": -0.331}, {"sequence": "AGTTGAAC", "PBM E-score": -0.259}, {"sequence": "ATACTCGG", "PBM E-score": 0.256}, {"sequence": "AAGAATAC", "PBM E-score": -0.172}, {"sequence": "GACAATTA", "PBM E-score": 0.0117}, {"sequence": "ACGAGGCG", "PBM E-score": 0.0264}, {"sequence": "CCGAGGAG", "PBM E-score": 0.183}, {"sequence": "CGGAGTAG", "PBM E-score": 0.465}, {"sequence": "AGATAGCT", "PBM E-score": -0.0406}, {"sequence": "ACTGTGTC", "PBM E-score": -0.0964}, {"sequence": "ACGAACAA", "PBM E-score": 0.0893}, {"sequence": "AATTAGGG", "PBM E-score": 0.0237}, {"sequence": "AGTGTAAC", "PBM E-score": -0.233}, {"sequence": "GCCACACA", "PBM E-score": 0.0674}, {"sequence": "CACGCACA", "PBM E-score": -0.0318}, {"sequence": "GAAGAATA", "PBM E-score": -0.29}, {"sequence": "CGGGGACG", "PBM E-score": 0.182}, {"sequence": "AGGGAGCC", "PBM E-score": -0.151}, {"sequence": "ACAATCAC", "PBM E-score": -0.119}, {"sequence": "CTGGCTAA", "PBM E-score": -0.123}, {"sequence": "CAATGGTA", "PBM E-score": -0.0688}, {"sequence": "GCAGGCGC", "PBM E-score": 0.12}, {"sequence": "ATTCGAAC", "PBM E-score": -0.0636}, {"sequence": "GCGCACGC", "PBM E-score": 0.154}, {"sequence": "TGGATGAA", "PBM E-score": -0.26}, {"sequence": "ACTTACGC", "PBM E-score": 0.0924}, {"sequence": "CGCCCCCG", "PBM E-score": 0.235}, {"sequence": "GACTCTGA", "PBM E-score": -0.0721}, {"sequence": "GTCGGGGA", "PBM E-score": 0.329}, {"sequence": "AAGGCCCC", "PBM E-score": 0.0357}, {"sequence": "ACAGGGCA", "PBM E-score": -0.233}, {"sequence": "GTCTTATA", "PBM E-score": -0.198}, {"sequence": "GGTATTCA", "PBM E-score": 0.0137}, {"sequence": "CACCTGTC", "PBM E-score": 0.0282}, {"sequence": "AGCACTCC", "PBM E-score": 0.173}, {"sequence": "CAGATAAG", "PBM E-score": -0.287}, {"sequence": "CTGGAACA", "PBM E-score": -0.157}, {"sequence": "GCGCTGCA", "PBM E-score": 0.0674}, {"sequence": "GTCCCGCA", "PBM E-score": 0.163}, {"sequence": "CCCGCTGC", "PBM E-score": 0.122}, {"sequence": "CGCGCTGC", "PBM E-score": -0.00693}, {"sequence": "AGTTGATA", "PBM E-score": -0.0704}, {"sequence": "AGTCACTC", "PBM E-score": -0.0686}, {"sequence": "GACTCACA", "PBM E-score": -0.248}, {"sequence": "CTGAACAG", "PBM E-score": -0.328}, {"sequence": "ACGCGAAA", "PBM E-score": -0.129}, {"sequence": "CTCGATCA", "PBM E-score": -0.0552}, {"sequence": "ATCTAGTC", "PBM E-score": 0.0095}, {"sequence": "AAAACTGT", "PBM E-score": -0.113}, {"sequence": "AAACTTAC", "PBM E-score": -0.0868}, {"sequence": "AGCTAAAC", "PBM E-score": -0.148}, {"sequence": "CGTCCTCC", "PBM E-score": 0.266}, {"sequence": "CGTTATGA", "PBM E-score": -0.0212}, {"sequence": "AGAGTCGA", "PBM E-score": -0.075}, {"sequence": "CTGACGAA", "PBM E-score": -0.091}, {"sequence": "ATGGGATC", "PBM E-score": -0.0567}, {"sequence": "CCCCACCA", "PBM E-score": -0.0198}, {"sequence": "GCACTGCA", "PBM E-score": -0.187}, {"sequence": "GACGCTAA", "PBM E-score": -0.142}, {"sequence": "AGCAAACC", "PBM E-score": 0.042}, {"sequence": "ACGGTCCC", "PBM E-score": 0.0472}, {"sequence": "CGGTCACG", "PBM E-score": 0.0783}, {"sequence": "GCCGGCTA", "PBM E-score": 0.301}, {"sequence": "CAGATCGC", "PBM E-score": 0.0639}, {"sequence": "AGCGGGAG", "PBM E-score": 0.1}, {"sequence": "ATATCCCC", "PBM E-score": 0.1}, {"sequence": "GGGTCACC", "PBM E-score": -0.16}, {"sequence": "AGGGCTAC", "PBM E-score": -0.248}, {"sequence": "AGCAGCTC", "PBM E-score": -0.134}, {"sequence": "ATGGGTCC", "PBM E-score": 0.169}, {"sequence": "CTTGGTCA", "PBM E-score": -0.13}, {"sequence": "GCACGCTA", "PBM E-score": -0.112}, {"sequence": "CGCTCATC", "PBM E-score": -0.055}, {"sequence": "GCGGAAGA", "PBM E-score": 0.301}, {"sequence": "ATTAGGTG", "PBM E-score": -0.123}, {"sequence": "ACAGCTAA", "PBM E-score": -0.27}, {"sequence": "GAACAAGC", "PBM E-score": -0.0964}, {"sequence": "ATCATTAG", "PBM E-score": -0.139}, {"sequence": "GAAAAGCC", "PBM E-score": 0.228}, {"sequence": "ATCATACA", "PBM E-score": -0.157}, {"sequence": "ACCTGGTA", "PBM E-score": -0.175}, {"sequence": "TATGGGCA", "PBM E-score": -0.266}, {"sequence": "CGCGTGTC", "PBM E-score": 0.184}, {"sequence": "TGTTTAAA", "PBM E-score": -0.18}, {"sequence": "GCGGCCCC", "PBM E-score": 0.248}, {"sequence": "AGGTCAGG", "PBM E-score": -0.184}, {"sequence": "ATCTGGAC", "PBM E-score": -0.0422}, {"sequence": "GGATTTCA", "PBM E-score": 0.338}, {"sequence": "ATTTTAGC", "PBM E-score": 0.0334}, {"sequence": "CAAAAGTG", "PBM E-score": -0.201}, {"sequence": "CGCTGTCC", "PBM E-score": 0.155}, {"sequence": "GAGACTCC", "PBM E-score": 0.249}, {"sequence": "AGGAGAGA", "PBM E-score": -0.136}, {"sequence": "GTCAAGTA", "PBM E-score": -0.367}, {"sequence": "AAAGAGTG", "PBM E-score": -0.158}, {"sequence": "CACTGCGC", "PBM E-score": -0.0411}]}]}
